# Data reported in PubChem BioAssay (Tox21).
# Several values for one entry are separate records, joined by “and”; a condition that tells them apart may be missing. Equal values may be shown once. The inconclusive results got no clear call from the source; some entries with a clear call stand among them for comparison. For part of these data: Potencies beside an inconclusive call are fits to weak or partial responses and may not hold up. More than one record can exist for a structure, and the calls need not agree. Activity calls are given as the source filed them. Unless noted, calls come from the whole dose curve; as a rule, active = well fitted curve in the direction sought with a large enough effect in the repeat runs; inconclusive = weak or mixed curves; inactive = no such curve, though single readings can be large; an effect the other way counts as inactive or inconclusive.
# Tests used:
# [1] = qHTS assay to identify small molecule agonists of the estrogen receptor beta (ER-beta) signaling pathway - cell viability counter screen (AID 1259380); note: nearly all actives have a fitted effect of over 30% in size
# Outline: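 CellTiter-Glo read, 30 min RT, same wells as bla assay; cells ER-beta-UAS-bla HEK293T; 16 hr compound, 37C; medium 2% charcoal-stripped FBS.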
# [2] = biological target: Progesterone receptor (Homo sapiens) (UniProt P06401); assay: qHTS assay to identify small molecule agonists of the progesterone receptor (PR) signaling pathway (AID 1346784; calls by dose curve; note: nearly all actives have a fitted effect of over 30% in size); conditions: PR-UAS-bla HEK293T, beta-lactamase FRET ratio, 16 h; activation: at 92.4 µM (top of the series) unless noted
# Outline: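 The screen uses PR-UAS-bla HEK 293T cells in charcoal-stripped serum (2%). Compounds are applied for 16 hr at 37C after a 6 hr pre-incubation, and reporter activity is detected with a FRET beta-lactamase substrate after 2 hr at room temperature.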
# [3] = biological target: Progesterone receptor (Homo sapiens) (UniProt P06401); assay: qHTS assay to identify small molecule antagonists of the progesterone receptor (PR) signaling pathway (AID 1346795; active = well fitted inhibition curve with a large enough effect in the signal ratio in the repeat runs, not every such curve was filed as active; inconclusive = weak or mixed curves; the % refers to the signal ratio; for activity change, negative = inhibition: % is set by controls: 0 for no effect and ±100 for the full control effect); conditions: PR-UAS-bla HEK293T, beta-lactamase FRET ratio, 16 h; activity change, negative = inhibition: at 92.4 µM (top of the series) unless noted
# Outline: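 After 6 hr plating at 37C in 2% stripped-serum medium, PR-UAS-bla HEK293T cells got compounds, then 1 nM R5020. Sixteen hours later, LiveBLAzer substrate was applied for 2 hr at room temperature and fluorescence was recorded.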
# [4] = qHTS assay to identify small molecule antagonists of the progesterone receptor (PR) signaling pathway - cell viability counter screen (AID 1346798); note: nearly all actives have a fitted effect of over 50% in size
# Outline: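 Viability was determined by ATP-based luminescence (CellTiter-Glo) in PR-UAS-bla HEK293T cells cultured in 2% charcoal-stripped serum and incubated 16 hr with compounds under R5020 stimulation.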
# [5] = qHTS assay to identify small molecule antagonists of the TGF-beta/Smad signaling pathway (AID 1346924; active = well fitted inhibition curve with a large enough effect in the signal ratio in the repeat runs, not every such curve was filed as active; inconclusive = weak or mixed curves; the % refers to the signal ratio); conditions: SBE-bla HEK293T, TGF-beta/Smad reporter, beta-lactamase ratio; activity, negative = inhibition: at 76.8 µM (top of the series) unless noted
# Outline: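 SBE-bla HEK 293T cells were plated overnight, then received compound in DMSO plus TGF-beta1 (added as a 0.25 ng/mL solution) and were incubated 5 h at 37 C. Beta-lactamase reporter activity was read after 2 h at room temperature with LiveBLAzer B/G FRET substrate (ex 405, em 460/530 nm).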
# [6] = Human pregnane X receptor (PXR) small molecule agonists, qHTS cell viability counter screen (AID 1346977); note: nearly all actives have a fitted effect of over 50% in size
# Outline: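 HepG2 cells stably carrying the PXR-Luc reporter are cultured with 5% charcoal-stripped FBS and treated with compounds for 24hr. CellTiter-Fluor is added at 23hr and fluorescence is read after 1hr.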
# [7] = qHTS assay to identify small molecule agonists of the progesterone receptor (PR) signaling pathway - cell viability counter screen (AID 1346799; calls by dose curve; note: nearly all actives have a fitted effect of over 45% in size)
# Outline: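 Viability was scored by ATP luminescence (CellTiter-Glo, 30 min, room temperature) in the same wells used for the reporter readout, after 16 hr compound exposure of PR-UAS-bla HEK293T cells.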
# [8] = qHTS assay to identify small molecule antagonists of the TGF-beta/Smad signaling pathway - cell viability counter screen (AID 1346824); note: nearly all actives have a fitted effect of over 50% in size
# Outline: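 Cytotoxicity counter-screen run in the same wells as the beta-lactamase Smad reporter read: CellTiter-Glo luminescence after 30 min at room temperature. HEK 293T SBE-bla cells had 5 hr compound exposure at 37 C with TGF-beta1 (0.25 ng/mL stock).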
# [9] = qHTS assay to identify small molecule agonists of the TGF-beta/Smad signaling pathway - cell viability counter screen (AID 1346829); note: nearly all actives have a fitted effect of over 45% in size
# Outline: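 Same-well cytotoxicity: CellTiter-Glo added after the 2 hr room-temperature beta-lactamase substrate step, luminescence measured 30 min later; cells had 5 hr of compound at 37 C.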
# [10] = qHTS assay to identify small molecule agonists of the TGF-beta/Smad signaling pathway (AID 1346859; active = well fitted activation curve with a large enough effect in the signal ratio in the repeat runs, not every such curve was filed as active; inconclusive = weak or mixed curves; the % refers to the signal ratio); conditions: SBE-bla HEK293T, TGF-beta/Smad beta-lactamase reporter, 5 h; activation: at 76.8 µM (top of the series)
# Outline: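 Dual-wavelength fluorescence (460/530 nm emission) quantified beta-lactamase expression under the Smad binding element in HEK 293T cells following 5 hr compound treatment at 37 C.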
# [11] = Caspase-3/7 induction in CHO-K1 cells by small molecules, qHTS cell viability counter screen (AID 1346979); note: nearly all actives have a fitted effect of over 35% in size
# Outline: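 Seeding: 1,500 CHO-K1 cells/well. Rest: 5hr, 37C. Treatment: compounds in DMSO, 16hr. Read: CellTiter-Fluor, 1hr, fluorescence.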
# [12] = qHTS assay to identify small molecule agonists of the estrogen receptor alpha (ER-alpha) signaling pathway in the presence of an antagonist - cell viability counter screen (AID 1259386);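 note: cells exposed to compounds for 22 h at 37 °C before the viability read; nearly all actives have a fitted effect of over 30% in size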
# Outline: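 Viability counter screen using VM7Luc4E2 (full-length ER-alpha, four ERE-luciferase). The cells were treated with compounds alongside ICI-182,780 10.0nM for 22hr, and live-cell protease fluorescence was quantified with CellTiter-Fluor.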
# [13] = Caspase-3/7 induction in CHO-K1 cells by small molecules, qHTS assay (AID 1346980); note: nearly all actives have a fitted effect of over 15% in size
# Outline: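 Luminescent Caspase-Glo 3/7 read (30min, room temperature) quantified apoptosis induction. Cells were wild-type CHO-K1, treated with compound for 17hr at 37 C and 5% CO2.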
# [14] = Caspase-3/7 induction in HepG2 cells by small molecules, qHTS assay (AID 1346978); note: nearly all actives have a fitted effect of over 15% in size
# Outline: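 Caspase-3/7 induction was measured by Caspase-Glo 3/7 luminescence (30 min, room temperature) after a 17 hr compound exposure of wild-type HepG2 cells seeded at 2,000 per well and pre-incubated 5 hr.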
# [15] = biological target: Thyrotropin-releasing hormone receptor (Homo sapiens) (UniProt P34981); assay: qHTS assay to identify small molecule antagonists of the thyrotropin-releasing hormone receptor (TRHR) signaling pathway (AID 1346877; active = well fitted inhibition curve with a large enough effect in the repeat runs, not every such curve was filed as active; inconclusive = weak or mixed curves)
# Outline: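 Following an 18 h incubation at 37 °C and a 2 h calcium dye load, TRHR-HEK293 cells were exposed to compound (5 min, room temperature) and challenged with TRH, 1 nM final.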
# [16] = biological target: Thyrotropin-releasing hormone receptor (Homo sapiens) (UniProt P34981); assay: qHTS assay to identify small molecule agonists of the thyrotropin-releasing hormone receptor (TRHR) signaling pathway (AID 1346891; calls by dose curve)
# Outline: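 Kinetic fluorescence (3 min, 1 s intervals) reported intracellular calcium after compound transfer onto TRHR-Hek293 cells pre-loaded with dye for 2 h at 37 °C.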
# [17] = qHTS assay to identify small molecule antagonists of the estrogen receptor beta (ER-beta) signaling pathway - cell viability counter screen (AID 1259382); note: nearly all actives have a fitted effect of over 55% in size
# Outline: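 In this multiplexed counter screen, cells were seeded at 2,000 per well in medium with 2% charcoal-stripped FBS and incubated 6 hr before compound and 1nM final E2 were added. Sixteen hours later, ATP-based luminescence reported viability.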
# [18] = biological target: Thyrotropin receptor (Homo sapiens) (UniProt P16473); assay: qHTS assay to identify small molecule antagonists of the thyroid stimulating hormone receptor (TSHR) signaling pathway (AID 1259385; calls by dose curve; note: nearly all actives have a fitted effect of over 20% in size; for activity change, negative = inhibition: % is set by controls: 0 for no effect and ±100 for the full control effect); conditions: TSHR-HEK293 cAMP HTRF, TSH-stimulated antagonist mode; activity change, negative = inhibition: at 92.4 µM (top of the series) unless noted
# Outline: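 Antagonist mode: compound-treated TSHR-expressing HEK293 cells were stimulated with 1.5 ng/mL TSH (final) in presence of Ro20-1724 for 30 min at RT. HTRF cAMP detection after 1 h; each compound tested at 15 concentrations, triplicate.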
# Potency is the fitted concentration of half-maximal effect; tags give direction and shape of the fitted curve or compound fluorescence and quenching.
# Chain of UniProt P06401 (P06401 whole entry, looked up): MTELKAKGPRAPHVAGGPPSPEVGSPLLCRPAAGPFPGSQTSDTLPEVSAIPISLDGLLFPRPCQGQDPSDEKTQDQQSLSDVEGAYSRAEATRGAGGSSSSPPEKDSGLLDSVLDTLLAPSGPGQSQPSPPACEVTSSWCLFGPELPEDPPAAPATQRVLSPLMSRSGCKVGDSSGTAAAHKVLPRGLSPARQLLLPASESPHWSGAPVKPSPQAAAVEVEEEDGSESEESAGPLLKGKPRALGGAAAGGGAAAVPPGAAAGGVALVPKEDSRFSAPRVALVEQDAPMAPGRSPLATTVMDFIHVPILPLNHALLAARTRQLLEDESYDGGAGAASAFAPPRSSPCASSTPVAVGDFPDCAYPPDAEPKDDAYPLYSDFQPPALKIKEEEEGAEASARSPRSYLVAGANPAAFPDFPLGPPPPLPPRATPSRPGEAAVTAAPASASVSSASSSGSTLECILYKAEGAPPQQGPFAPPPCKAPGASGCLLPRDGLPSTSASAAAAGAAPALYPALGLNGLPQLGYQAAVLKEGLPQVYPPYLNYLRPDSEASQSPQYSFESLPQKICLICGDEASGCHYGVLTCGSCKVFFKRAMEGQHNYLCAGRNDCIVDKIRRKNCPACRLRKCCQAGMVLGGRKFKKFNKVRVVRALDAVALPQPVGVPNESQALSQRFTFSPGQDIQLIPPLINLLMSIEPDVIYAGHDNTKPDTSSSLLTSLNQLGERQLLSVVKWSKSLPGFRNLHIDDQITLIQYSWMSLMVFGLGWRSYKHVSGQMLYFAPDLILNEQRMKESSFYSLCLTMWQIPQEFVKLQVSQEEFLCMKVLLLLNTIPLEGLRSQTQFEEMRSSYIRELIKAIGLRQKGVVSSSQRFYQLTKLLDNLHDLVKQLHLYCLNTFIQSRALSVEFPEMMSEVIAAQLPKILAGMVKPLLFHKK
# Chain of UniProt P34981 (P34981 whole entry, looked up): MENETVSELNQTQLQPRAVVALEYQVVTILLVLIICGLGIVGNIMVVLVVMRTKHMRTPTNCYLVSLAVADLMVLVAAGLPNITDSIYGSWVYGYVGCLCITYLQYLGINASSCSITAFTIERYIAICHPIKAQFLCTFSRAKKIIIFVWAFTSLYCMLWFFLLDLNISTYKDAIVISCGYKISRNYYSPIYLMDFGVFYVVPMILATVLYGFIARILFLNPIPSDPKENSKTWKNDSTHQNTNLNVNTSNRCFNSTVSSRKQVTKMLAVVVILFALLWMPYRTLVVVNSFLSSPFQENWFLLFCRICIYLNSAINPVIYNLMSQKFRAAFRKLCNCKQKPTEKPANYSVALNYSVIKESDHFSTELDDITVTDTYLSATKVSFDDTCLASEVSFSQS
# Chain of UniProt P16473 (P16473 whole entry, looked up): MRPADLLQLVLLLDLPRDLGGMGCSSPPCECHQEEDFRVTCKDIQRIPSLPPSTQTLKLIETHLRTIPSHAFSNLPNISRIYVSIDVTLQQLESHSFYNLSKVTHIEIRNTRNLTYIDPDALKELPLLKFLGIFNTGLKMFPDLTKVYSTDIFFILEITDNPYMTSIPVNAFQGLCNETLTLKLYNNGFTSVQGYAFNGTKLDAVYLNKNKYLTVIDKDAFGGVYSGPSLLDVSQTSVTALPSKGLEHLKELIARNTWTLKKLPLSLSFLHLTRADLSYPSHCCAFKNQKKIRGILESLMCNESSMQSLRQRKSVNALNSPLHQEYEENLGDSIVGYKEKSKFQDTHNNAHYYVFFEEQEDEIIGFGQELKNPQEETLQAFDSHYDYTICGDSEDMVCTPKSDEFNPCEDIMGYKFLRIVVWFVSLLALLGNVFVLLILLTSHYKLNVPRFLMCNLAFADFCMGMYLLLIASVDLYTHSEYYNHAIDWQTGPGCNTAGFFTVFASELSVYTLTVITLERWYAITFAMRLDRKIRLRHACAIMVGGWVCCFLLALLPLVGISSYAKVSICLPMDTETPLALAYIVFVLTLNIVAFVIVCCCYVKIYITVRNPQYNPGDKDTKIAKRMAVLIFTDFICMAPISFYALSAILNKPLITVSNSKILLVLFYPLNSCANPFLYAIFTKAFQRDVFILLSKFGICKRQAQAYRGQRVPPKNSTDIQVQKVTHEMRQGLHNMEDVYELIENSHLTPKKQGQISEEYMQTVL
compound,measurement,setting,value
Oc1cc(Cl)c(Cl)cc1Cl,Potency,[1],"inconclusive: 48.6 µM [cytotoxic, partial curve, poor fit]"
same,Potency,[2],"inconclusive: 68.6 µM [falling, partial curve, poor fit]"
same,Potency,[3],active: 60.6 µM and active: 54.5 µM
same,Potency,[4],"inconclusive: 76.3 µM [cytotoxic, single point]"
same,"activity, negative = inhibition",[5],inconclusive: -9.7%
same,Potency,[6],"inconclusive: 70.8 µM [cytotoxic, single point] and inconclusive: 68.6 µM [cytotoxic, single point]"
Cc1c(COC(=O)[C@@H]2[C@H](/C=C(\Cl)C(F)(F)F)C2(C)C)cccc1-c1ccccc1,Potency,[1],"inconclusive: 26.7 µM [cytotoxic, single point]"
same,Potency,[3],"inconclusive: 26.7 µM [falling, partial curve]"
same,Potency,[7],inactive and active: 54.3 µM
same,Potency,[8],"inconclusive: 3.08 µM [cytotoxic, full curve, poor fit]"
same,Potency,[9],"inconclusive: 48.9 µM [cytotoxic, partial curve, poor fit]"
same,Potency,[10],"inconclusive: 48.9 µM [rising, partial curve]"
same,Potency,[6],"inconclusive: 1.93 µM [rising, full curve, poor fit]"
same,Potency,[11],"inconclusive: 59.7 µM [cytotoxic, single point]"
Cc1cccc(N)c1N,Potency,[1],"inconclusive: 13.2 µM [cytotoxic, single point]"
same,Potency,[12],"inactive and inconclusive: 30.6 µM [cytotoxic, partial curve]"
same,Potency,[3],inconclusive: 68.6 µM [single point]
same,"activity change, negative = inhibition",[3],inconclusive: -39.2%
same,Potency,[11],"inconclusive: 74.4 µM [cytotoxic, partial curve, poor fit]"
NNC(=S)NN,Potency,[1],"inconclusive: 12.5 µM [cytotoxic, full curve]"
same,Potency,[3],active: 62.8 µM and active: 54.5 µM
same,Potency,[7],"inconclusive: 38.6 µM [rising, partial curve, poor fit]"
same,Potency,[6],"inconclusive: 61.1 µM [cytotoxic, partial curve, poor fit]"
same,Potency,[13],active: 56 µM
CN(C)CCO,Potency,[1],inactive
same,Potency,[3],inactive
CCCN(CC)CC1COC2(CCC(C(C)(C)C)CC2)O1 (stereo not given),Potency,[1],"inconclusive: 17.2 µM [cytotoxic, partial curve, poor fit]"
same,Potency,[4],"inconclusive: 19.3 µM [cytotoxic, partial curve]"
same,Potency,[7],"inconclusive: 0.217 µM [cytotoxic, full curve]"
same,Potency,[11],inactive
CN(C)c1ccc(C(=O)c2ccc(N(C)C)cc2)cc1,Potency,[1],"inconclusive: 19.3 µM [cytotoxic, partial curve]"
same,Potency,[12],"inconclusive: 67.9 µM [cytotoxic, single point] and inconclusive: 30.6 µM [cytotoxic, partial curve]"
same,Potency,[7],"inconclusive: 19.3 µM [rising, partial curve, poor fit]"
same,Potency,[6],"inconclusive: 44.7 µM [cytotoxic, partial curve] and active: 54.5 µM"
same,Potency,[14],"inconclusive: 19.1 µM [activator, partial curve] and inconclusive: 1.93 µM [activator, partial curve]"
same,Potency,[11],"inconclusive: 60.5 µM [cytotoxic, partial curve] and active: 24.3 µM"
O=c1oc2ccccc2c(O)c1C(CC(O)c1ccc(-c2ccc(Br)cc2)cc1)c1ccccc1 (stereo not given),Potency,[1],"inconclusive: 72.8 µM [cytotoxic, single point]"
same,Potency,[2],"inconclusive: 6.49 µM [rising, partial curve]"
same,Potency,[15],"inconclusive: 25.4 µM [inhibitor, partial curve]"
same,Potency,[16],"inconclusive: 26.1 µM [activator, partial curve, poor fit]"
same,Potency,[5],"inconclusive: 8.24 µM [fluorescent, full curve] and inconclusive: 7.56 µM [fluorescent]"
C[C@]12Cc3cn[nH]c3C[C@@H]1CC[C@@H]1[C@@H]2CC[C@@]2(C)[C@H]1CC[C@]2(C)O,Potency,[17],active: 6.68 µM
same,Potency,[18],inactive
same,Potency,[2],"inconclusive: 29.8 µM [falling, single point]"
same,Potency,[3],active: 0.119 µM
same,Potency,[4],active: 18.8 µM
same,Potency,[7],active: 18.8 µM
same,Potency,[6],"inconclusive: 33.5 µM [cytotoxic, single point]"
same,Potency,[11],"inconclusive: 33.5 µM [cytotoxic, single point]"
CC(C)(c1ccccc1)c1cc(-n2nc3ccccc3n2)c(O)c(C(C)(C)c2ccccc2)c1,Potency,[1],inactive
same,Potency,[7],"inconclusive: 13.3 µM [rising, partial curve, poor fit]"
CC(C)Oc1cccc(NC(=O)c2ccccc2C(F)(F)F)c1,Potency,[17],inconclusive: 27.3 µM [cytotoxic]
same,Potency,[18],inconclusive: 38.6 µM
same,Potency,[2],active: 1.22 µM
same,Potency,[3],inconclusive: 47.2 µM
same,Potency,[4],"inconclusive: 13.7 µM [cytotoxic, full curve, poor fit]"
same,Potency,[7],"inconclusive: 21.7 µM [cytotoxic, partial curve]"
same,Potency,[8],"inconclusive: 4.36 µM [cytotoxic, partial curve, poor fit]"
same,Potency,[10],"inconclusive: 54.9 µM [rising, single point]"
same,Potency,[11],active: 45.8 µM
